According to PubChem BioAssay (NCI):
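Each compound was tested at five concentrations against cells in 96-well plates for 48 hours. GI50 is the concentration that inhibits growth by half.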 A number of entries come with more than one value. Only these are listed. There may be further records. The tests behind the records often covered other concentration ranges, which the source does not state; a value can be the end of its range.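 TGI: concentration producing complete growth inhibition.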

Assays:
Test in all cases: NCI-60 cell line screen, 48 h
HCT-15 colon = tested on: HCT-15 colon
U251 CNS = tested on: U251 CNS
A549 NSCLC = tested on: A549 NSCLC
SK-MEL-5 melanoma = tested on: SK-MEL-5 melanoma

## CN1C(=O)[C@]23SSC1(C)C(=O)N2[C@H]1Nc2ccccc2C1([C@@]12c4ccccc4N[C@@H]1N1C(=O)C4(C)SS[C@]1(C(=O)N4C)[C@H]2O)[C@@H]3O (stereo not given in full)
HCT-15 colon
  TGI: 97.9 nM and 1.06 µM
U251 CNS
  GI50: 60.8 nM and 1.21 µM
  TGI: 246 nM and 2.64 µM
A549 NSCLC
  GI50: 153 nM and 2.54 µM
SK-MEL-5 melanoma
  GI50: 59 nM and 663 nM
